# Laboratory results: the supplement of paper PMC12217912
# This is one part of the list. The full chains were built here from the parent and the listed change. Inactive controls read about 0.05.
# B1: TEV protease; numbered along this chain (parent)
# chain: MGESLFKGPRDYNPISSSICHLTNESDGHTTSLYGIGFGPFIITNKHLFRRNNGTLVVQSLHGVFKVKDTTTLQQHLVDGRDMIIIRMPKDFPPFPQKLKFREPQREERICLVTTNFQTKSMSSMVSDTSCTFPSGDGIFWKHWIQTKDGQCGSPLVSTRDGFIVGIHSASNFTNTNNYFTSVPKNFMELLTNQEAQQWVSGWRLNADSVLWGGHKVFMVKPEEPFQPVKEATQL
# Variants of: B1
# Experiment: raw area under fraction-flipped curve 0-4 h after induction (AUC4h, not background-subtracted), DNA-recorder readout of cleavage of the substrate (dimensionless); higher = more cleavage of the substrate by the protease variant
# Settings: temperature: 34 °C; time window: 0-4 h after rhamnose induction
# Experimental: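 In vivo DNA recorder in E. coli TOP10(DE3) ΔrhaA at 34 °C. Each TEVp single-site mutant (parent TEVp 0) is paired with a single-site variant of the 7-mer TEVs (canonical ENLYFQ|S). The substrate sits between flexible linkers in a Bxb1-sfGFP-TEVs-SsrA fusion, so cleavage stabilises Bxb1 and speeds flipping of a recombination array, read by NGS. The value is the raw area under the fraction-flipped curve over 0-4 h after rhamnose induction (AUC4h), with ≥20 reads per time point. It is not background-subtracted; inactive controls average about 0.047.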
# 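Further: Bxb1 expression induced with 0.2% (w/v) L-rhamnose at OD600 near 0.5, cultures sampled hourly, flipped fraction per protease–substrate barcode pair counted by paired-end Illumina sequencing.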
Variant,area with substrate ENAYFQS,area with substrate ENCYFQS,area with substrate ENDYFQS,area with substrate ENEYFQS,area with substrate ENFYFQS,area with substrate ENGYFQS,area with substrate ENHYFQS,area with substrate ENIYFQS,area with substrate ENKYFQS,area with substrate ENMYFQS,area with substrate ENNYFQS,area with substrate ENPYFQS,area with substrate ENQYFQS,area with substrate ENRYFQS,area with substrate ENSYFQS,area with substrate ENTYFQS,area with substrate ENVYFQS,area with substrate ENWYFQS,area with substrate ENYYFQS
MGESLFKGPRDYNPISSSICHATNESDGHTTSLYGIGFGPFIITNKHLFRRNNGTLVVQSLHGVFKVKDTTTLQQHLVDGRDMIIIRMPKDFPPFPQKLKFREPQREERICLVTTNFQTKSMSSMVSDTSCTFPSGDGIFWKHWIQTKDGQCGSPLVSTRDGFIVGIHSASNFTNTNNYFTSVPKNFMELLTNQEAQQWVSGWRLNADSVLWGGHKVFMVKPEEPFQPVKEATQL [L22A],0.0546,0.0547,0.0666,0.0412,0.0513,0.0691,0.0526,0.0734,0.0632,0.0631,0.0544,0.0561,0.0525,0.0642,0.0588,0.0646,0.0532,0.0091,
MGESLFKGPRDYNPISSSICHLMNESDGHTTSLYGIGFGPFIITNKHLFRRNNGTLVVQSLHGVFKVKDTTTLQQHLVDGRDMIIIRMPKDFPPFPQKLKFREPQREERICLVTTNFQTKSMSSMVSDTSCTFPSGDGIFWKHWIQTKDGQCGSPLVSTRDGFIVGIHSASNFTNTNNYFTSVPKNFMELLTNQEAQQWVSGWRLNADSVLWGGHKVFMVKPEEPFQPVKEATQL [T23M],0.0618,0.0653,0.0601,0.0656,0.0534,0.0558,0.0602,0.102,0.0639,,0.0454,0.0578,0.0661,0.0633,0.0666,0.0672,0.0709,0.0798,0.0601
MGESLFKGPRDYNPISSSICHLTKESDGHTTSLYGIGFGPFIITNKHLFRRNNGTLVVQSLHGVFKVKDTTTLQQHLVDGRDMIIIRMPKDFPPFPQKLKFREPQREERICLVTTNFQTKSMSSMVSDTSCTFPSGDGIFWKHWIQTKDGQCGSPLVSTRDGFIVGIHSASNFTNTNNYFTSVPKNFMELLTNQEAQQWVSGWRLNADSVLWGGHKVFMVKPEEPFQPVKEATQL [N24K],0.069,0.0764,0.0618,0.0633,0.0652,0.0607,0.0729,,0.0689,0.0652,0.061,,0.0638,0.0438,0.0564,0.0664,0.0613,,0.0882
MGESLFKGPRDYNPISSSICHLTNEVDGHTTSLYGIGFGPFIITNKHLFRRNNGTLVVQSLHGVFKVKDTTTLQQHLVDGRDMIIIRMPKDFPPFPQKLKFREPQREERICLVTTNFQTKSMSSMVSDTSCTFPSGDGIFWKHWIQTKDGQCGSPLVSTRDGFIVGIHSASNFTNTNNYFTSVPKNFMELLTNQEAQQWVSGWRLNADSVLWGGHKVFMVKPEEPFQPVKEATQL [S26V],0.0589,,0.0632,0.0643,0.0715,,,,,0.069,0.0621,0.0737,0.0554,0.0382,0.0589,,0.0684,,
MGESLFKGPRDYNPISSSICHLTNESVGHTTSLYGIGFGPFIITNKHLFRRNNGTLVVQSLHGVFKVKDTTTLQQHLVDGRDMIIIRMPKDFPPFPQKLKFREPQREERICLVTTNFQTKSMSSMVSDTSCTFPSGDGIFWKHWIQTKDGQCGSPLVSTRDGFIVGIHSASNFTNTNNYFTSVPKNFMELLTNQEAQQWVSGWRLNADSVLWGGHKVFMVKPEEPFQPVKEATQL [D27V],0.192,0.0578,0.0597,0.0525,0.0536,0.0608,0.0743,0.0796,0.0489,0.046,0.0668,,0.0541,0.0558,0.0566,0.0602,0.0615,0.0299,0.059
MGESLFKGPRDYNPISSSICHLTNESDHHTTSLYGIGFGPFIITNKHLFRRNNGTLVVQSLHGVFKVKDTTTLQQHLVDGRDMIIIRMPKDFPPFPQKLKFREPQREERICLVTTNFQTKSMSSMVSDTSCTFPSGDGIFWKHWIQTKDGQCGSPLVSTRDGFIVGIHSASNFTNTNNYFTSVPKNFMELLTNQEAQQWVSGWRLNADSVLWGGHKVFMVKPEEPFQPVKEATQL [G28H],0.0497,0.0754,0.063,0.06,0.0785,,,0.11,0.0585,0.0749,,,0.0603,0.0606,,,0.0663,,
MGESLFKGPRDYNPISSSICHLTNESDMHTTSLYGIGFGPFIITNKHLFRRNNGTLVVQSLHGVFKVKDTTTLQQHLVDGRDMIIIRMPKDFPPFPQKLKFREPQREERICLVTTNFQTKSMSSMVSDTSCTFPSGDGIFWKHWIQTKDGQCGSPLVSTRDGFIVGIHSASNFTNTNNYFTSVPKNFMELLTNQEAQQWVSGWRLNADSVLWGGHKVFMVKPEEPFQPVKEATQL [G28M],0.0478,,0.0608,0.0648,0.0588,0.056,,,,0.0705,0.0586,,0.0442,0.0528,0.0547,,0.0554,,
MGESLFKGPRDYNPISSSICHLTNESDSHTTSLYGIGFGPFIITNKHLFRRNNGTLVVQSLHGVFKVKDTTTLQQHLVDGRDMIIIRMPKDFPPFPQKLKFREPQREERICLVTTNFQTKSMSSMVSDTSCTFPSGDGIFWKHWIQTKDGQCGSPLVSTRDGFIVGIHSASNFTNTNNYFTSVPKNFMELLTNQEAQQWVSGWRLNADSVLWGGHKVFMVKPEEPFQPVKEATQL [G28S],0.0683,0.0644,0.0619,0.0574,0.044,0.0637,0.0586,0.0883,0.0468,0.0699,,0.0539,0.0605,0.0556,0.0398,0.065,0.0663,0.0073,0.0786
MGESLFKGPRDYNPISSSICHLTNESDGYTTSLYGIGFGPFIITNKHLFRRNNGTLVVQSLHGVFKVKDTTTLQQHLVDGRDMIIIRMPKDFPPFPQKLKFREPQREERICLVTTNFQTKSMSSMVSDTSCTFPSGDGIFWKHWIQTKDGQCGSPLVSTRDGFIVGIHSASNFTNTNNYFTSVPKNFMELLTNQEAQQWVSGWRLNADSVLWGGHKVFMVKPEEPFQPVKEATQL [H29Y],0.0553,0.051,0.0647,,0.0548,0.0717,0.0586,0.104,0.0597,,,0.0453,0.0509,0.0555,0.0546,0.0602,0.0752,0.0691,0.05
MGESLFKGPRDYNPISSSICHLTNESDGHTCSLYGIGFGPFIITNKHLFRRNNGTLVVQSLHGVFKVKDTTTLQQHLVDGRDMIIIRMPKDFPPFPQKLKFREPQREERICLVTTNFQTKSMSSMVSDTSCTFPSGDGIFWKHWIQTKDGQCGSPLVSTRDGFIVGIHSASNFTNTNNYFTSVPKNFMELLTNQEAQQWVSGWRLNADSVLWGGHKVFMVKPEEPFQPVKEATQL [T31C],0.0526,0.0693,0.0571,0.0538,,0.0694,0.0683,,0.0691,,0.0525,0.0595,0.0641,0.0543,0.0916,0.0738,0.0677,,0.0608
MGESLFKGPRDYNPISSSICHLTNESDGHTGSLYGIGFGPFIITNKHLFRRNNGTLVVQSLHGVFKVKDTTTLQQHLVDGRDMIIIRMPKDFPPFPQKLKFREPQREERICLVTTNFQTKSMSSMVSDTSCTFPSGDGIFWKHWIQTKDGQCGSPLVSTRDGFIVGIHSASNFTNTNNYFTSVPKNFMELLTNQEAQQWVSGWRLNADSVLWGGHKVFMVKPEEPFQPVKEATQL [T31G],0.054,0.0597,0.064,0.0538,0.0626,0.0479,0.0619,,0.045,0.0646,0.0739,,0.0567,0.0492,,,0.0711,0.0201,
MGESLFKGPRDYNPISSSICHLTNESDGHTRSLYGIGFGPFIITNKHLFRRNNGTLVVQSLHGVFKVKDTTTLQQHLVDGRDMIIIRMPKDFPPFPQKLKFREPQREERICLVTTNFQTKSMSSMVSDTSCTFPSGDGIFWKHWIQTKDGQCGSPLVSTRDGFIVGIHSASNFTNTNNYFTSVPKNFMELLTNQEAQQWVSGWRLNADSVLWGGHKVFMVKPEEPFQPVKEATQL [T31R],0.0539,0.0622,0.0505,,0.0623,0.0351,0.0589,,0.0343,,0.0404,0.0603,0.0555,0.0615,0.055,0.0474,0.0626,,
MGESLFKGPRDYNPISSSICHLTNESDGHTTNLYGIGFGPFIITNKHLFRRNNGTLVVQSLHGVFKVKDTTTLQQHLVDGRDMIIIRMPKDFPPFPQKLKFREPQREERICLVTTNFQTKSMSSMVSDTSCTFPSGDGIFWKHWIQTKDGQCGSPLVSTRDGFIVGIHSASNFTNTNNYFTSVPKNFMELLTNQEAQQWVSGWRLNADSVLWGGHKVFMVKPEEPFQPVKEATQL [S32N],0.0642,0.0611,0.0674,0.0603,0.0512,0.0416,,,0.0906,,0.07,,0.0664,0.0838,0.0583,0.0576,0.0625,0.0588,
MGESLFKGPRDYNPISSSICHLTNESDGHTTSFYGIGFGPFIITNKHLFRRNNGTLVVQSLHGVFKVKDTTTLQQHLVDGRDMIIIRMPKDFPPFPQKLKFREPQREERICLVTTNFQTKSMSSMVSDTSCTFPSGDGIFWKHWIQTKDGQCGSPLVSTRDGFIVGIHSASNFTNTNNYFTSVPKNFMELLTNQEAQQWVSGWRLNADSVLWGGHKVFMVKPEEPFQPVKEATQL [L33F],0.0604,0.0719,0.0614,0.0543,0.0575,0.0605,0.0539,0.0749,0.068,0.0687,0.0454,0.0708,0.0589,0.0477,0.067,0.0578,0.0662,0.0515,0.0557
MGESLFKGPRDYNPISSSICHLTNESDGHTTSQYGIGFGPFIITNKHLFRRNNGTLVVQSLHGVFKVKDTTTLQQHLVDGRDMIIIRMPKDFPPFPQKLKFREPQREERICLVTTNFQTKSMSSMVSDTSCTFPSGDGIFWKHWIQTKDGQCGSPLVSTRDGFIVGIHSASNFTNTNNYFTSVPKNFMELLTNQEAQQWVSGWRLNADSVLWGGHKVFMVKPEEPFQPVKEATQL [L33Q],0.0517,0.0623,0.0649,0.0821,0.0698,0.0592,0.0645,0.0858,0.062,0.0581,0.0649,0.0363,0.0649,,0.0571,0.0634,0.065,,
MGESLFKGPRDYNPISSSICHLTNESDGHTTSVYGIGFGPFIITNKHLFRRNNGTLVVQSLHGVFKVKDTTTLQQHLVDGRDMIIIRMPKDFPPFPQKLKFREPQREERICLVTTNFQTKSMSSMVSDTSCTFPSGDGIFWKHWIQTKDGQCGSPLVSTRDGFIVGIHSASNFTNTNNYFTSVPKNFMELLTNQEAQQWVSGWRLNADSVLWGGHKVFMVKPEEPFQPVKEATQL [L33V],0.0339,0.0577,0.0674,0.0588,,0.0615,,0.102,,,0.0575,0.0579,,0.0486,0.0629,,0.0516,0.0877,0.0573
MGESLFKGPRDYNPISSSICHLTNESDGHTTSLCGIGFGPFIITNKHLFRRNNGTLVVQSLHGVFKVKDTTTLQQHLVDGRDMIIIRMPKDFPPFPQKLKFREPQREERICLVTTNFQTKSMSSMVSDTSCTFPSGDGIFWKHWIQTKDGQCGSPLVSTRDGFIVGIHSASNFTNTNNYFTSVPKNFMELLTNQEAQQWVSGWRLNADSVLWGGHKVFMVKPEEPFQPVKEATQL [Y34C],0.0469,0.0616,0.0652,0.0581,0.0568,0.0685,0.0583,,,,0.0565,0.0621,0.0575,0.0548,0.0568,0.0543,0.0611,,
